# Source: paper PMC4336329 (PLoS ONE, 2015)
# Screen size: about 310,000 compounds; about 14,000 (4.5%) showed an effect of 50% or more. Effects have a minus sign here. Some of the results follow.
# Target: human ether-à-go-go-related gene (hERG) potassium channel (human, UniProt Q12809)
# Test: primary screen, population patch clamp on CHO cells stably expressing hERG
# 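Further: peak tail current of the secondary pulse compared with the same well before compound.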
# human ether-à-go-go-related gene (hERG) potassium channel, sequence (Q12809 whole entry, looked up): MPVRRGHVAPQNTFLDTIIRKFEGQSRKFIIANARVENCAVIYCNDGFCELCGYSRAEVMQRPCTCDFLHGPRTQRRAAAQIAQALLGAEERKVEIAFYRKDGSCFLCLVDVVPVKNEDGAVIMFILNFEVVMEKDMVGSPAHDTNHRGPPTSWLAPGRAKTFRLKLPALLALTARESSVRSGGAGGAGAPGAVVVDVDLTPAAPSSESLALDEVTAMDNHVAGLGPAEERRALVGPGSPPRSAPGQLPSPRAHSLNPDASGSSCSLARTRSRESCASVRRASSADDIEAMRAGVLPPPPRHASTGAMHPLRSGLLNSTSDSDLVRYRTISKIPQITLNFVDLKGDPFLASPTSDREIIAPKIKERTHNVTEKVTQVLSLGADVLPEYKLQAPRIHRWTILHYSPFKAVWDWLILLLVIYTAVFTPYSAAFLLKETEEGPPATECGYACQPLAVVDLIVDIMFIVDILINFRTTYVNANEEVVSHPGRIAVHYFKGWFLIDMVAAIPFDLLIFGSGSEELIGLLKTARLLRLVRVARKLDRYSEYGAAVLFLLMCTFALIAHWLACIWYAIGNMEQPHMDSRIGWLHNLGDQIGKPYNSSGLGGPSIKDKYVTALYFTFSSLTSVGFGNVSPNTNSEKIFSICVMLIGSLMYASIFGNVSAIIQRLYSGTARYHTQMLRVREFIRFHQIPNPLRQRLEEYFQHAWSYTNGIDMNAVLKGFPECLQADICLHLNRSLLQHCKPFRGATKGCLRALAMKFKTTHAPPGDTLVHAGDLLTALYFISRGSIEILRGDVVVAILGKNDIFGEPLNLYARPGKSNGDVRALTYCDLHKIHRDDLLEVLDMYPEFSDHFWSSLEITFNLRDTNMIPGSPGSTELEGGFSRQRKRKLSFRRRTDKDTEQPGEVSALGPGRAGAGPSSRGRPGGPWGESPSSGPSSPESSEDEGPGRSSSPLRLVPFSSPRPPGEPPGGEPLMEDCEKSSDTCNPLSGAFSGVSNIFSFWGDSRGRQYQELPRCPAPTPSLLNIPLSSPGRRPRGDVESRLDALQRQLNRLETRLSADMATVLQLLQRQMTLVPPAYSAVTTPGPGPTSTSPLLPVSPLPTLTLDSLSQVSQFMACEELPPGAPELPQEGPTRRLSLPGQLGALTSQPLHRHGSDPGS
row,Structure (SMILES),"hERG current change (%, negative = inhibition) at 10uM [%]"
1,Cc1nc(-c2ccccc2)sc1C(=O)/C=C/c1ccc(Cl)cc1,15.8
2,Cc1nc2ccc(S(=O)(=O)NCC(=O)N3CCc4ccccc43)cc2s1,-3.05
3,O=C(NCc1ccccc1CN1CCCC1)C1CCN(C(=O)c2ccc(F)cc2)CC1,-20.1
4,Cc1nnc(NC(=O)CSc2nnc(C(C)NC(=O)c3ccccc3F)n2C)s1 (stereo not shown),11.9
5,Cc1cc(Cl)ccc1OCc1cn2cccnc2n1,-17.5
6,Cc1nc(SCC(=O)Nc2ccnc3ccccc23)n[nH]1,-4.19
7,CCc1cc(C(=O)N2CCCC(C(=O)c3cccc4ccccc34)C2)n(C)n1 (stereo not shown),-10.1
8,COc1ccc(NS(=O)(=O)c2cc(OC)ccc2OC)cc1,6.32
9,COc1ccc(-c2nc(NC(=O)Cn3c(=O)oc4ccccc43)sc2C)cc1,5.19
10,COc1ccccc1C(=O)NCCNc1nc2cc(C)cc(C)c2cc1C#N,13.3
11,O=C(N/N=C/c1cccc(O)c1)c1ccccc1O,4.92
12,Oc1c(C=Nc2ccccc2)sc2ccccc12,7.23
13,COc1ccc(NC(=O)CN(c2cccc(C(F)(F)F)c2)S(C)(=O)=O)cc1OC,0.169
14,COc1ccc(CNC(=O)CN2C(=O)NC3(CCCc4sccc43)C2=O)cc1OC (stereo not shown),-10.6
15,Cc1ccccc1NC(=O)/C(C#N)=C/c1ccccc1C(F)(F)F,10.4
16,NC1=NC(=O)CC(C(=O)Nc2cccc3ccccc23)S1 (stereo not shown),11.6
17,COc1cccc2c1-c1c(O)cccc1C2=O,16.2
18,Cc1ccc(CNC(=O)CCc2nnc3ccc(NCCCN4CCCC4=O)nn23)cc1,12.6
19,CCC1=C(C(=O)OC)C(c2cc(OC)ccc2OC)C(C#N)=C(N)O1 (stereo not shown),10.7
20,Cc1sc(NC(=O)c2ccco2)nc1-c1ccc2c(c1)CC(C)N2C(=O)C1CC1 (stereo not shown),-1.59
21,CC(=O)c1ccc(-n2c(=O)[nH]c(=O)c3c(N)c(C(=O)c4ccc(Cl)cc4)sc32)cc1,-5.17
22,COc1ccc(CC(NC(C)=O)C(=O)NC2CCN(S(=O)(=O)c3ccc(NC(C)=O)cc3)CC2)cc1OC (stereo not shown),8.57
23,COC(=O)c1c(NC(=O)c2ccccc2)sc2c1CC(C)(C)NC2(C)C,-5
24,O=C1N/C(=C/c2ccc(Br)s2)C(=O)N1c1ccccc1,17.3
25,CN(CCc1ccccn1)S(=O)(=O)c1ccc(F)cc1,3.8
26,CC(=O)c1ccc(S(=O)(=O)NCCC(=O)OC(C)C(=O)Nc2ccc(F)cc2)cc1 (stereo not shown),-7.96
27,Cc1cc(C(=O)COC(=O)c2ccc[nH]c2=O)c(C)n1-c1ccccc1F,-2.38
28,O=C(c1n[nH]c2c1CCC2)N1CCCC(Nc2cccc(F)c2)C1 (stereo not shown),-9.01

row,Structure (SMILES),"hERG current change (%, negative = inhibition) at 10uM [%]"
1,COc1ccc([N+](=O)[O-])cc1NC(=O)COC(=O)/C=C/c1ccco1,1.54
2,CC1CCCN(c2ccc(N)cc2C(N)=O)C1 (stereo not shown),4.44
3,Cc1cc(OCC(=O)N[C@@H](Cc2ccccc2)C(=O)O)c2c3c(c(=O)oc2c1)CCC3,3.29
4,O=C(NCC1CCCN1S(=O)(=O)c1cccs1)c1cccc(Cl)c1 (stereo not shown),-23.7
5,COc1cccc(C(=O)NCC(c2ccc3c(c2)OCO3)N2CCN(c3ccc(F)cc3)CC2)c1 (stereo not shown),-22.5
6,CC(=O)Nc1nc2cc3c(cc2s1)OCO3,14.2
7,COc1ccc(-c2nc(CS(=O)CC(=O)NCc3ccco3)c(C)o2)cc1 (stereo not shown),-7.82
8,COC(=O)C(Cc1ccccc1)NC(=O)COc1ccc(C(C)(C)C)cc1 (stereo not shown),-30.7
9,CCOc1nc(C)ccc1-c1noc(-c2ccccc2OC)n1,12.7
10,Cc1ccc(C(=O)NNC(=O)c2cc3ccccc3cc2O)cc1,12.7
11,CCOc1ccc(NC(=O)C2CCCN(S(=O)(=O)c3ccc4c(c3)CC(C)N4C(C)=O)C2)cc1 (stereo not shown),12.9
12,CC(C)c1cccc(C(C)C)c1OC(=O)NC(=O)c1c(F)cccc1F,12.9
13,Clc1ccc(/C=N/N2CCN(Cc3ccccc3Cl)CC2)cc1,14.9
14,CCC(C)(C)N(C(=O)CCC(=O)Nc1cc(C)on1)C(C(=O)NC(C)(C)C)c1ccc(OC)cc1 (stereo not shown),7.87
15,CCOC(=O)c1c(NC(=O)COc2ccccc2F)sc2c1CC(C)(C)NC2(C)C,5.17
16,COc1ccc(S(=O)(=O)N2CCC(C(N)=O)CC2)c2ccccc12,-5.13
17,COc1ccc(-c2cc(-c3ccc(OC)cc3)[nH]n2)cc1,12.4
18,C=C(C)Cn1c(N2CCCC2)nc2c1c(=O)[nH]c(=O)n2C,7.26
19,CC(C)NC(=O)CN1CCN(C(=O)c2ccc3oc(CCCc4ccccc4)nc3c2)CC1,-40.7
20,O=C(Cc1ccc(Cl)cc1)N/N=C1\CCCc2ccccc21,-5.25
21,Cc1cc(C)c(S(=O)(=O)c2ccccc2Cl)c(Cl)n1,2.34
22,CC1(c2ccc(Cl)cc2)NC(=O)N(CC(=O)N2CCN(S(=O)(=O)c3ccccc3)CC2)C1=O (stereo not shown),-50
23,O=C1CC(c2ccc(Br)cc2)NC(c2ccc(Br)cc2)C1c1ccccc1 (stereo not shown),-5.43
24,O=C(Nc1cccc(F)c1)c1c(F)c(F)c(F)c(F)c1F,-12.2
25,Cc1ccc(/C=N/Nc2ccc(F)cc2)s1,21.5
26,N#CCCN(CCN1CCCC1)S(=O)(=O)c1ccc(-c2ccc([N+](=O)[O-])cc2)cc1,-79.1
27,O=C(NCc1ccccc1Br)c1ccco1,8.96
